From ChEMBL document CHEMBL4888484, “Replenishing the malaria drug discovery pipeline: Screening and hit evaluation of the MMV Hit Generation Library 1 (HGL1) against asexual blood stage Plasmodium falciparum ,using a nano luciferase reporter read-out” (2022) come the findings set out here.

Structures are written as SMILES. Hit rate of the full screen: of about 150,000 compounds, about 540 (0.36%) showed an effect of 50% or more. The list shows a part of the results.

The subject of the experiment is Plasmodium falciparum. As to the kind of experiment: Primary screen in NF54 nanoGlo assay, in single point, at 2uM, 72h; a lower Z score goes with more inhibition. It counts as functional, Erythrocyte. The note with it: timepoint 72 hour.
Consider `CCOC1CC(CO)(NC(=O)c2ccc(C(C)C)nc2)C1(C)C` (stereo unspecified), for which the % Inhibition (in general, the drop in the measured response relative to a control, in per cent) is 8% and the Z score was -1.51.

`Cc1ccc(S(=O)(=O)N2CCN(C(=O)CCn3ccc4ccccc43)CC2)cc1`: the “% Inhibition” value was -3% and the Z score came to 0.58.

Take `Cc1cc(C)n2ncc(-c3noc([C@H](C)OCC4CC4)n3)c2n1`: the “% Inhibition” value is recorded as -10% and the Z score stood at 1.37.

`O=C(NCC(F)(F)C(F)F)[C@H]1COCC(=O)N1Cc1ccccc1`: the “% Inhibition” value was -26% and the Z score was determined as 3.03.

For the compound `CCCCN(C)c1ncc(Cl)c(C(=O)NCCNS(=O)(=O)CC)n1`, the “% Inhibition” value is -6% and the Z score is 0.78.

In the case of `C[C@H]1CCS(=O)(=O)CCN1C(=O)NCC(C)(C)C1CCCCC1`, the “% Inhibition” value is 0% and the Z score is on record as 0.04.

Turning to `CC(=O)c1cc(-c2ccccc2CN2CCOCC2)ccc1O`, the “% Inhibition” value is -8% and the Z score was determined as 1.4.

As to `O=C(CCc1ccccc1)N1CCC[C@H]1c1ccc[nH]1`, the “% Inhibition” value is -16% and the Z score was determined as 1.61.

For the compound `Cc1cc(C(=O)NC2(CCO)CCN(C)CC2)oc1Br`, the “% Inhibition” value is listed as -2% and the Z score was 0.36.

For the compound `Cc1cc(CS(=O)(=O)N(C(C)C)C2COC2)on1`, the “% Inhibition” value is given as -13% and the Z score worked out at 1.91.

For `CC(C)Cc1noc(CN(C)C2CCN(Cc3ccccc3)CC2)n1`, the “% Inhibition” value was found to be 0% and the Z score is -0.05.

For the compound `COc1cccc(NC(=O)CN2C[C@H](CCN3CCCC3=O)c3ccccc32)c1`, the “% Inhibition” value is given as -4% and the Z score is listed as 0.83.

For `CCN(CC)c1ccc(C(=O)Oc2ccc(NC(C)=O)cc2)cn1`, the “% Inhibition” value is listed as 0% and the Z score is -0.06.

Regarding `CC(C)N(CC1CCC1)C(=O)NCc1ccc(C(N)=O)o1`, the “% Inhibition” value is -5% and the Z score came to 0.97.

Take `CC(C)Cc1cc(CNC(=O)c2cc(CC(C)C)nc(N)n2)on1`: the “% Inhibition” value was 17% and the Z score is listed as -2.23.

As for `CCCS(=O)(=O)N(CCOC)CC(=O)N(Cc1ccc(Cl)cc1)C1CCN(C(=O)c2ccccc2F)CC1`, the “% Inhibition” value was -23% and the Z score was found to be 3.08.

For the compound `CC1(C)CC(=S)C=C(N2CCCCC2)C1`, the “% Inhibition” value is on record as -7% and the Z score amounted to 1.08.

Turning to `COc1ccc(-n2c(Cn3ccnc3)n[nH]c2=O)c(C)c1`, the “% Inhibition” value is -7% and the Z score worked out at 0.95.

Turning to `CN(CC(=O)N1CCOCC1)C1CCCCC1`, the “% Inhibition” value is reported as -1% and the Z score worked out at 0.13.

For the compound `CCC1(CC)C(NC(=O)Nc2c[nH]c(=O)c(C)c2)C(C)C1OC` (stereo unspecified), the “% Inhibition” value is on record as 1% and the Z score is reported as -0.08.

Consider `COc1cccc(OCCN2CC[C@H](c3cccc(OC)c3OC)C2)c1`, for which the “% Inhibition” value is on record as 0% and the Z score is 0.

For `CC(C)(C)c1noc(CNC(=O)CCc2cn[nH]c2)n1`, the “% Inhibition” value was -16% and the Z score is listed as 3.08.

`c1ccc2ncc(CO[C@H]3CCCc4c[nH]nc43)cc2c1`: the “% Inhibition” value was -13% and the Z score is reported as 2.26.

Take `CCn1ncc(C(=O)N[C@@H]2C[C@H]3OCC[C@@H]23)c1C`: the “% Inhibition” value came to 0% and the Z score is recorded as 0.04.

For `COc1ccc(-c2cc3n(n2)C[C@@](C)(C(=O)NCc2ccccc2OC)N(c2cc(C)cc(C)c2)C3=O)cc1`, the “% Inhibition” value turned out to be 9% and the Z score is given as -1.43.

As to `CC(=O)OCC1OC2OC(C)(C#N)OC2C(OC(C)=O)C1OC(C)=O` (stereo unspecified), the “% Inhibition” value worked out at 1% and the Z score was -0.1.

For `CC[C@](C)(NC(=O)c1cnc(C2CC2)nc1N)c1nc(C)cs1`, the “% Inhibition” value was -10% and the Z score stood at 1.

Turning to `CC(C)N(CC(=O)Nc1nc(-c2ccccc2)cn1-c1ccccc1)S(=O)(=O)c1ccc(Cl)cc1`, the “% Inhibition” value is listed as -2% and the Z score is 0.29.

As to `Cc1ccccc1Cc1c(C)nc2c(C(=O)N3CCC(Cc4nncn4Cc4ccccc4)CC3)cnn2c1C`, the “% Inhibition” value stood at 3% and the Z score is given as -0.29.

In the case of `CC(C)N1C(=O)CC[C@H]1C(=O)NC1(c2c(F)cccc2F)COC1`, the “% Inhibition” value was determined as 4% and the Z score is -0.55.

Regarding `CCCn1nnnc1CNc1ccc(C(C)C)cc1`, the “% Inhibition” value is 31% and the Z score is -3.48.

On to `O=S(=O)(NC[C@@](O)(c1ccccc1)C1CC1)c1cccs1`, for which the “% Inhibition” value is listed as 1% and the Z score is listed as -0.18.

For the compound `Cc1nnc2n1C[C@@H](NCc1cnc(C(C)(C)C)s1)CC2`, the “% Inhibition” value was -10% and the Z score is 2.06.

Regarding `CC(C)c1csc(CCNC(=O)[C@@H](C)Cn2cncn2)n1`, the “% Inhibition” value was -4% and the Z score is recorded as 0.58.

Take `O=C(Nc1ccc2c(c1)OCO2)C1CCN(c2ccc3nncn3n2)CC1`: the “% Inhibition” value worked out at 7% and the Z score was -0.84.

Consider `CCn1nc(CO)c2c1CCN(C1CCN(c3ccc(C)c(Cl)c3)CC1)C2`, for which the “% Inhibition” value was -1% and the Z score was 0.12.

On to `Oc1ccc(-n2c(-c3ccccc3)ccc2-c2ccccc2)cc1`, for which the “% Inhibition” value stood at 36% and the Z score was -4.61.

Take `c1ccn2c(OCCc3ccc4c(c3)CCO4)nnc2c1`: the “% Inhibition” value is -4% and the Z score is 0.66.

Consider `Cc1occc1C(=O)N(C)Cc1nc2ccccc2c(=O)[nH]1`, for which the “% Inhibition” value is listed as -14% and the Z score was determined as 2.05.

As for `COc1ccccc1CN(Cc1c(C)noc1C)C1CC1`, the “% Inhibition” value is -6% and the Z score worked out at 0.48.

Turning to `CNC(=O)c1cnc(-c2ccc(F)cc2)n(CC(=O)Nc2cc(F)ccc2F)c1=O`, the “% Inhibition” value was -23% and the Z score is given as 3.5.

With `C[C@](O)(CN1CCC(CC(N)=O)CC1)C(F)(F)F`, the “% Inhibition” value was -2% and the Z score is recorded as 0.44.

Turning to `Cc1noc(C)c1C[C@H](C)NC(=O)Nc1ccc2c(c1)C(=O)NCC2`, the “% Inhibition” value is reported as 3% and the Z score is on record as -0.32.
